# Results published in the supplement of paper PMC7826260.
# This is one part of the list. Cleavage of a single-stranded DNA pool by Rep nickase domains was read by sequencing at 3 µM enzyme and 37 °C for 1 h; the strands have 90 letters, of which the middle is given. Numbers give uncut DNA relative to the enzyme-free pool, as log2; uncut sequences lie near 0, cut ones below; no hit call is given. Because reads are shares of a total, they shift together; values above 0 arise when much of the pool is cut.
# Assays:
# Assay in all cases: uncleaved DNA left, log2 of reads against the no-enzyme library (log2 ratio); higher = less cleavage (more negative = more Rep cleavage of the k-mer); sequences stand for … in CTCGTCCG…ACCGGAGA
# [1] = system: T1, Rep nickase domain of Muscovy duck circovirus
# T1 sequence (protein, residues 1-111, tag omitted): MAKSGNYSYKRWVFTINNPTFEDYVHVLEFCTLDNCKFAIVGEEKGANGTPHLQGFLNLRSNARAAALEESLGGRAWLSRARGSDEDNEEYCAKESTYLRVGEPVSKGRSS
# Procedure: (§1)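 A pool of 90-nt single-stranded DNAs with seven random bases just before the constant AC of the nick site (name = the seven bases) was cut by 3 µM recombinant His6-SUMO-tagged Rep nickase domain (300 nM DNA, 50 mM HEPES pH 8.0, 50 mM NaCl, 1 mM MnCl2, 1 h, 37 °C, three replicates). Uncut DNA was amplified and sequenced.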
# [2] = system: T2, Rep nickase domain of banana bunchy top virus
# T2 sequence (protein, residues 1-94, tag omitted): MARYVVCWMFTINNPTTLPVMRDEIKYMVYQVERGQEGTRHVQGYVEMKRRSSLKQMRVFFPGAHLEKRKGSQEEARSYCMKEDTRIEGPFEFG
# Procedure: as §1
# [3] = system: T3, Rep nickase domain of cabbage leaf curl virus
# T3 sequence (protein, residues 1-116, tag omitted): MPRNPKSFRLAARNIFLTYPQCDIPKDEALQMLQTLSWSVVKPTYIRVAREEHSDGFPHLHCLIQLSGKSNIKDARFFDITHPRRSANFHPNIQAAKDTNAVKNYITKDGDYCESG
# Procedure: as §1
# [4] = system: T4, Rep nickase domain of chickpea chlorotic dwarf virus
# T4 sequence (protein, residues 1-124, tag omitted): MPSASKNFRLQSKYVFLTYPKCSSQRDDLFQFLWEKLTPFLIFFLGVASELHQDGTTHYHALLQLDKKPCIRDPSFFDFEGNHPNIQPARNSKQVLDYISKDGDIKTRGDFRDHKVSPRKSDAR
# Procedure: as §1
# [5] = system: T5, Rep nickase domain of faba bean necrotic yellows virus
# T5 sequence (protein, residues 1-98, tag omitted): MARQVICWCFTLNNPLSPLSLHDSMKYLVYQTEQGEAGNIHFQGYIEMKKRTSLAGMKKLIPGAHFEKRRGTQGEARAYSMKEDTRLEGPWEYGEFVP
# Procedure: as §1
# [6] = system: T6, Rep nickase domain of maize striate mosaic virus
# T6 sequence (protein, residues 1-117, tag omitted): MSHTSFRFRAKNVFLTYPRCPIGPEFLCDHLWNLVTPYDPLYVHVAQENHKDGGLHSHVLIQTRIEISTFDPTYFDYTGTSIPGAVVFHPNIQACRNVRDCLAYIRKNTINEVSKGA
# Procedure: as §1
# [7] = system: T7, Rep nickase domain of porcine circovirus 2
# T7 sequence (protein, residues 2-116, tag omitted): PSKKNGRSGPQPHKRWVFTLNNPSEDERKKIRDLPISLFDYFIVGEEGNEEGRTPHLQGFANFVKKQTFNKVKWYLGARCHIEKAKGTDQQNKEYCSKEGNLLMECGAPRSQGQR
# Procedure: as §1
# [8] = system: T8, Rep nickase domain of tomato golden mosaic virus
# T8 sequence (protein, residues 1-124, tag omitted): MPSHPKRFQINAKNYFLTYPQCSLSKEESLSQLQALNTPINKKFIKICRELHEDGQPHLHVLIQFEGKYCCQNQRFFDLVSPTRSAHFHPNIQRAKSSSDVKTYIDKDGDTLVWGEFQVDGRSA
# Procedure: as §1
# [9] = system: T9, Rep nickase domain of tomato yellow leaf curl virus
# T9 sequence (protein, residues 1-136, tag omitted): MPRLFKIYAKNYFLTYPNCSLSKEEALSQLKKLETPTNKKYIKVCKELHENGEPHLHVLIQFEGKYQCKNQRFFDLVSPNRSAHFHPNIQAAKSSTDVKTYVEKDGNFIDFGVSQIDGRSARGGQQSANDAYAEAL
# Procedure: as §1
# [10] = system: T10, Rep nickase domain of wheat dwarf virus
# T10 sequence (protein, residues 1-137, tag omitted): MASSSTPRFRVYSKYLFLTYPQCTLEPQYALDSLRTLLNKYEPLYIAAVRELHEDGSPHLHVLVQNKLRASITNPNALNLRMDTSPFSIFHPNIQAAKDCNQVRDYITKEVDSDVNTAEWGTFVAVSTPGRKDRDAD
# Procedure: as §1
Sequence,uncleaved DNA left (log2) [1],uncleaved DNA left (log2) [2],uncleaved DNA left (log2) [3],uncleaved DNA left (log2) [4],uncleaved DNA left (log2) [5],uncleaved DNA left (log2) [6],uncleaved DNA left (log2) [7],uncleaved DNA left (log2) [8],uncleaved DNA left (log2) [9],uncleaved DNA left (log2) [10]
GCCAACA,-0.0812,-0.0802,-0.0222,-0.981,-0.166,0.118,-0.02,-0.0273,-0.104,-0.0749
GTACCAG,-0.0823,-0.0175,-0.147,-0.153,-0.0539,-0.446,-0.168,-0.00618,-0.0507,0.00476
TACTTAT,-3.45,-2.37,-2.02,-2.96,-0.0587,-0.382,-3.78,-0.245,-0.0462,-0.29
TAACTAG,0.0889,0.1,-0.798,-1.2,-0.0571,-1.34,0.141,0.0574,-0.0121,-0.0198
CTCAGCA,0.126,0.112,-0.272,-0.74,0.0459,-0.803,-0.0927,0.0261,0.0751,0.076
CGCTGGT,-0.132,0.00878,0.015,0.192,-0.0925,0.249,-0.727,-0.0955,-0.188,-0.0655
TGCGGGC,-0.0107,0.0591,-0.14,-0.243,0.135,-0.277,0.0176,-0.00233,0.0888,-0.00857
GGTGCCA,0.13,0.0662,0.608,1.34,0.0497,1.86,0.172,-0.0124,0.065,0.13
ACCGCCG,-0.0549,-0.021,-0.469,0.648,-0.0616,-0.0613,0.0842,-0.0657,-0.0392,-0.183
TGAGTAA,0.0534,0.106,0.0475,-0.0513,0.18,0.0823,-0.0293,0.178,0.00197,0.13
GAAGGCG,0.00478,0.0191,-0.638,0.534,0.0316,-0.41,0.118,0.0635,0.0466,-0.0804
ACACAGG,0.141,0.239,-0.47,-0.218,0.17,-1.09,0.256,0.226,0.18,0.149
CAGGACG,-0.0137,0.125,-0.319,-0.126,-0.00528,-1.07,0.167,0.0823,0.0658,-0.0251
CACCTCA,-0.0948,0.0271,-0.125,-1.97,0.0312,-0.408,-0.174,-0.0734,-0.0213,0.0605
AGGCGTG,0.0896,-0.074,-0.282,-0.0856,-0.109,-0.156,0.119,-0.0304,-0.000989,-0.137
